{"source": "PubChem BioAssay AID1030", "about": "(National Center for Advancing Translational Sciences (NCATS), 2008)", "note": "Screen size: about 220,000 compounds; about 16,000 (7.3%) were called active. The inconclusive results got no clear call from the source; some entries with a clear call stand among them for comparison. Calls follow the shape of the dose curve; as a rule, active = well fitted inhibition curve with a large enough effect (not every such curve was filed as active); inconclusive = small, poorly fitted or top-dose-only effect, or another doubt; inactive = no such curve, though single readings can be large or run the other way. Potencies of inconclusive entries are left out as doubtful fits. Potency is read from the fitted curve at half-maximal effect; tags tell the direction and shape of the fitted curve.", "data": [{"molecular_target": "Aldehyde dehydrogenase 1A1 (Homo sapiens) (UniProt P00352)", "sequence (P00352 whole entry, looked up)": "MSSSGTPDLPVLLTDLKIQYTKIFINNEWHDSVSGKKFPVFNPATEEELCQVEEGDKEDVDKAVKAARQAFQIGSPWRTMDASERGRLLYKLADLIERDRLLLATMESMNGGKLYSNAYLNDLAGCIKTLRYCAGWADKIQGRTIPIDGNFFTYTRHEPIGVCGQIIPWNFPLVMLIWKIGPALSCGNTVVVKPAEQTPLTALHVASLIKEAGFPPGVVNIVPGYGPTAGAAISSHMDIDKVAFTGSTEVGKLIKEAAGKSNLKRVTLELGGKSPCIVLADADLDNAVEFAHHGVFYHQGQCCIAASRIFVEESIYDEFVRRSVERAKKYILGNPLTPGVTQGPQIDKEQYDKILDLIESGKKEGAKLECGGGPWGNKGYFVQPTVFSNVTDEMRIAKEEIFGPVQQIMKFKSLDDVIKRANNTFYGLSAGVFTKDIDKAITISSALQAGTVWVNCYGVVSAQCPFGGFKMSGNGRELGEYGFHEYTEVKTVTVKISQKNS", "test": "qHTS Assay for Inhibitors of Aldehyde Dehydrogenase 1 (ALDH1A1);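 as to activity, negative = inhibition: plate controls were no enzyme wells and a reference inhibitor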", "conditions": "Purified ALDH1A1, NADH fluorescence, propionaldehyde substrate; series mostly up to 75.3 µM; activity, negative = inhibition: at the top concentration", "values": [{"smiles": "CN=C1N[C@H](c2ccccc2)N(c2ccccc2)S1", "Potency": "active: 1.26 µM"}, {"smiles": "CCCOc1ccc(N2C(=O)CC(N(Cc3ccco3)C(C)=O)C2=O)cc1", "note": "(configuration not stated)", "Potency": "inconclusive [inhibitor, single point]"}, {"smiles": "Cc1ccc(NC(=O)CO/N=C(\\N)c2nonc2N)cc1C", "Potency": "inconclusive [inhibitor, single point]"}, {"smiles": "Cc1cc2nc(-c3ccc(SCC(=O)Nc4ccc5c(c4)OCCO5)nc3)[nH]c2cc1C", "Potency": "inconclusive [inhibitor, partial curve]"}, {"smiles": "COc1cccc(Cn2c(=O)c(-c3cc(F)cc(F)c3)nc3cncnc32)c1", "Potency": "inconclusive [inhibitor, single point]"}, {"smiles": "COc1ccc(/C=C(/C(=O)Nc2ccccc2C(=O)NC(C)C)c2ccccc2)cc1", "Potency": "inconclusive [inhibitor, single point]"}, {"smiles": "O=C1NCC(NC(=O)C(F)(F)F)c2cc3c(cc21)OCO3", "note": "(configuration not stated)", "Potency": "inconclusive [inhibitor, single point]"}, {"smiles": "COC(=O)c1cn(C(=O)c2ccc(C)c(C)c2)c2ccccc12", "Potency": "inconclusive [inhibitor, single point]"}, {"smiles": "Cc1nc2c(sc3nc4c(cc32)COC(C)(C)C4)c(=O)n1CC(=O)NCc1ccco1", "Potency": "inconclusive [inhibitor, partial curve]"}, {"smiles": "Cc1nnc(SCC2=C(C(=O)O)N3C(=O)C(NC(=O)C(C)n4nc(C(F)(F)F)cc4C)C3SC2)s1", "note": "(configuration not stated)", "Potency": "inconclusive [inhibitor, single point]"}, {"smiles": "CCOc1ccc(NC(=O)CSc2nnc(-c3ccccc3Cl)n2Cc2ccco2)cc1", "Potency": "active: 14.1 µM"}, {"smiles": "COc1ccc(OC)c(NC(=O)C2CCC(CNc3c(N4CCC(C)CC4)c(=O)c3=O)CC2)c1", "note": "(configuration not stated)", "activity, negative = inhibition": "inactive: 2.5%"}, {"smiles": "Cc1ccc(-c2nnc(SCC(=O)N/N=C/c3ccc(C)s3)n2-c2ccc(C)cc2)cc1", "activity, negative = inhibition": "inactive: -5.73%"}, {"smiles": "COc1ccccc1NS(=O)(=O)c1ccc(Cl)c(NC(=S)NC(=O)C2CCCC2)c1", "Potency": "inconclusive [inhibitor, single point]"}, {"smiles": "CCn1c(SCc2nc3sc(C(=O)O)c(C)c3c(=O)[nH]2)nc2ccccc21", "Potency": "inconclusive [inhibitor, single point]"}, {"smiles": "COc1ccc(C(=O)NNC(=O)c2ccc(C(C)(C)C)cc2)cc1", "activity, negative = inhibition": "inactive: -13.5%"}, {"smiles": "CC(=O)c1cc(-c2ccc(F)cc2)n(CCC(=O)Nc2cccnc2)c1C", "activity, negative = inhibition": "inactive: 0.518%"}, {"smiles": "CC(NC(=S)NCc1ccc(F)cc1)C12CC3CC(CC(C3)C1)C2", "note": "(configuration not stated)", "Potency": "inconclusive [inhibitor, single point]"}, {"smiles": "O=C(/C=C/Nc1ccc(Nc2ccccc2)cc1)c1cccs1", "Potency": "inconclusive [inhibitor, full curve, poor fit]"}, {"smiles": "Cc1ccc(C(=O)C(C)Oc2cccc(NC(=O)c3ccco3)c2)cc1", "note": "(configuration not stated)", "activity, negative = inhibition": "inactive: -6.5%"}, {"smiles": "O=C(Nc1nnc(CSCc2ccccc2F)s1)c1cccc([N+](=O)[O-])c1", "Potency": "active: 25.1 µM"}, {"smiles": "Cc1c(N=C2NN=C(c3ccc(Cl)cc3)CS2)c(=O)n(-c2ccccc2)n1C", "Potency": "active: 17.8 µM"}, {"smiles": "COc1ccc(CN(C(=O)/C=C/C(=O)c2ccc(OC)cc2O)C(C(=O)NC2CCCCC2)c2ccncc2)cc1", "note": "(configuration not stated)", "Potency": "inconclusive [inhibitor, single point]"}, {"smiles": "CCOc1ccc(C(C)(C)C)cc1S(=O)(=O)n1nc(C)cc1C", "Potency": "inconclusive [inhibitor, single point]"}, {"smiles": "Cn1c(C(=O)N(Cc2ccccc2)Cc2cccs2)cc2sccc21", "Potency": "inconclusive [inhibitor, partial curve]"}, {"smiles": "Cc1cccc(N2CCN(C(c3ccccc3)c3nnnn3C(C)(C)C)CC2)c1C", "note": "(configuration not stated)", "Potency": "inconclusive [inhibitor, single point]"}, {"smiles": "Cc1ccc(NC(=O)COC(=O)CCc2ccc(S(=O)(=O)N3CCOCC3)cc2)cc1F", "Potency": "inconclusive [inhibitor, partial curve]"}, {"smiles": "COC(=O)CNC(c1ccccc1)c1cc(Br)ccc1NC(=O)CNC(=O)OCc1ccccc1", "note": "(configuration not stated)", "Potency": "inconclusive [inhibitor, single point]"}, {"smiles": "Cc1ccc(CN2CCSc3ccc(C(=O)N4CCN(c5ncccn5)CC4)cc32)cc1", "Potency": "inconclusive [inhibitor, partial curve]"}, {"smiles": "Clc1ccc(-c2nnc(CSc3nnc(-c4cccs4)o3)o2)cc1", "activity, negative = inhibition": "inactive: -4.54%"}, {"smiles": "CCn1c(C2CCN(Cc3ccccc3)CC2)n[nH]c1=S", "activity, negative = inhibition": "inactive: 0.665%"}, {"smiles": "CCOC(=O)/C=C1\\SCC(=O)N1CC(=O)NC(C)c1ccc(F)cc1", "note": "(configuration not stated)", "activity, negative = inhibition": "inactive: 3.16%"}, {"smiles": "CCN(CC)CCNC(=O)CSc1c2c(nc3cc(Cl)ccc13)CCCC2", "activity, negative = inhibition": "inactive: 3.94%"}, {"smiles": "CC(C)(C)c1nnc(NC(=S)Nc2ccccc2)s1", "Potency": "active: 25.1 µM"}, {"smiles": "CC(=O)Nc1cccc(NS(=O)(=O)c2cccc3nsnc23)c1", "Potency": "inconclusive [inhibitor, single point]"}, {"smiles": "CC(=O)N1N=C(c2cccc(Br)c2)OC12CCCC2", "Potency": "inconclusive [inhibitor, partial curve]"}, {"smiles": "O=C(CSc1nnc(-c2ccccc2)n1C1CCCCC1)Nc1ccc(S(=O)(=O)Nc2ccccn2)cc1", "Potency": "inconclusive [inhibitor, partial curve]"}, {"smiles": "COc1cc2[nH]c(=S)nc(NCc3cccs3)c2cc1OC", "Potency": "active: 11.2 µM"}, {"smiles": "COC(=O)Cc1cc(=O)n(-c2nc3ccccc3[nH]2)[nH]1", "activity, negative = inhibition": "inactive: 4.48%"}, {"smiles": "COC(=O)N1[C@H](C)C=C[C@]1(Cc1ccccc1)C(=O)NCc1ccccn1", "Potency": "inconclusive [inhibitor, single point]"}, {"smiles": "CCC(=O)Nc1cc2c(C)cc(=O)oc2cc1C", "Potency": "inconclusive [inhibitor, partial curve]"}, {"smiles": "O=C(Cc1c(O)c2ccccc2[nH]c1=O)NCc1ccccc1F", "Potency": "inconclusive [inhibitor, partial curve]"}, {"smiles": "C/C(=N\\NC(=O)c1ccc(CN(C)S(=O)(=O)c2ccc(C)cc2)cc1)c1ccc(OC(F)F)cc1", "Potency": "active: 25.1 µM"}, {"smiles": "COc1ccc(C(=O)Nc2nc3nccc(-c4ccccc4)n3n2)cc1", "activity, negative = inhibition": "inactive: 0.996%"}, {"smiles": "O=C(NCc1ccncc1)c1cc(C(=O)C2CCCCC2)c[nH]1", "Potency": "inconclusive [inhibitor, single point]"}, {"smiles": "CN(C)CCCNC(=O)c1cc(S(=O)(=O)N2CCOCC2)ccc1F", "Potency": "inconclusive [inhibitor, single point]"}, {"smiles": "COc1ccc(CN2CCN(C(=O)C3CCC(CNS(=O)(=O)c4ccccc4)CC3)CC2)c(OC)c1OC", "note": "(configuration not stated)", "Potency": "active: 14.1 µM"}, {"smiles": "COc1ccc2nc(Nc3nc4cc5c(cc4s3)OCO5)sc2c1", "Potency": "inconclusive [inhibitor, single point]"}, {"smiles": "O=C(/C=C/c1ccc([N+](=O)[O-])cc1)N(c1ccccn1)C1CCCCC1", "Potency": "active: 12.6 µM"}, {"smiles": "CC(NC(=O)Cn1ncc(Cl)c(Cl)c1=O)C12CC3CC(CC(C3)C1)C2", "note": "(configuration not stated)", "Potency": "inconclusive [inhibitor, single point]"}, {"smiles": "CC(C)c1nc(NCc2ccccc2)c(C#N)c2c1CCCC2", "Potency": "inconclusive [inhibitor, single point]"}, {"smiles": "CCN(c1ccc(NC(=O)CSc2nnc3nc(C)cc(C)n23)cc1)C(C)C", "Potency": "inconclusive [inhibitor, single point]"}, {"smiles": "Cc1cc(C)nc(-n2nc(C)cc2NC(=O)CNCc2ccccc2)n1", "Potency": "active: 8.91 µM"}, {"smiles": "COc1ccc(CSc2nncn2N)cc1Br", "activity, negative = inhibition": "inactive: 9.41%"}, {"smiles": "COc1cc(/C=N/N2C(C)CCCC2C)cc(Br)c1O", "note": "(configuration not stated)", "Potency": "inconclusive [inhibitor, single point]"}, {"smiles": "Cc1c(C)n(C)c2ccc(C(=O)Nc3cccc4ccccc34)cc12", "Potency": "inconclusive [inhibitor, single point]"}, {"smiles": "O=C(CC(c1ccccc1)c1ccccc1O)NCc1ccccc1Cl", "note": "(configuration not stated)", "activity, negative = inhibition": "inactive: -3.83%"}, {"smiles": "Cc1cc(=O)[nH]c(SCc2nc3ncccn3c2Br)n1", "Potency": "inconclusive [inhibitor, partial curve]"}, {"smiles": "COc1ccc(-n2nnnc2SCC(=O)Nc2ccccc2N2CCOCC2)cc1OC", "activity, negative = inhibition": "inactive: 3.83%"}, {"smiles": "C=CCNCCOc1ccc(C(C)(C)c2ccccc2)cc1", "Potency": "inconclusive [inhibitor, partial curve]"}, {"smiles": "Cc1nc2[nH]c(=S)[nH]c2cc1Br", "Potency": "active: 17.8 µM"}, {"smiles": "Nc1cccc2nc3ccccc3cc12", "Potency": "inconclusive [inhibitor, partial curve]"}, {"smiles": "CC(C)(C)C(=O)N1CCC(O)(CS(=O)(=O)c2ccc(Cl)c(Cl)c2)CC1", "activity, negative = inhibition": "inactive: -0.0971%"}, {"smiles": "CCOC(=O)c1ccc2c(c1)nc(-c1ccc(F)cc1)c1nccn12", "Potency": "inconclusive [inhibitor, partial curve]"}, {"smiles": "Cn1c(=O)c2c(nc(NCc3ccco3)n2C)n(C)c1=O", "activity, negative = inhibition": "inactive: -5.5%"}, {"smiles": "Cc1ccccc1NC1(C#N)C(=O)Nc2ccccc21", "note": "(configuration not stated)", "Potency": "inconclusive [inhibitor, single point]"}, {"smiles": "C[C@@](O)(/C=C/[C@H]1CC=CC(=O)O1)[C@@H](C[C@@H](O)\\C=C/C=C\\C=C\\CO)OP(=O)(O)O", "activity, negative = inhibition": "inactive: 5.64% [at 13.5 µM]"}, {"smiles": "COc1ccc2c(Cl)c(C(=O)NN)sc2c1", "Potency": "active: 1.12 µM"}, {"smiles": "Nc1c(Cl)cc(Cl)cc1C(=O)OCC(=O)N1CCCC1", "Potency": "inconclusive [inhibitor, partial curve]"}, {"smiles": "Clc1ccccc1CSc1nnc(-c2ccncc2)o1", "activity, negative = inhibition": "inactive: -11.8%"}, {"smiles": "Cc1c(Br)c([N+](=O)[O-])nn1CCCC(=O)NC(C)c1ccccc1", "note": "(configuration not stated)", "activity, negative = inhibition": "inactive: -8.65%"}, {"smiles": "CCCCC(c1nnnn1CC1CCCO1)N1CCN(c2cc(Cl)ccc2C)CC1", "note": "(configuration not stated)", "Potency": "inconclusive [inhibitor, single point]"}]}]}
